*1 amine or outer side, *2 acyl side, *3 side chain or, on linkers, in order; H or OH if unused. Where a SMILES comes first, the peptide text is derived from it. [ ]: non-standard residue; d: D form. The star is where a group is joined. ξ: configuration not given here. Pro(3R,4S-CMe2) = CC1(C)[C@@H]2[C@@H](C(=O)O)NC[C@@H]21; Pro(trans-3-OtBu) = CC(C)(C)O[C@H]1CCN[C@@H]1C(=O)O; X33 = CCCC[C@@H](N[*:1])C(=O)C(=O)[*:2]; X2 = CCCC(N[*:1])C(=O)C(=O)[*:2]; Phg = N[C@H](C(=O)O)c1ccccc1; Tle = CC(C)(C)[C@H](N)C(=O)O; ξPhg = NC(C(=O)O)c1ccccc1; Boc = CC(C)(C)OC(=O)*; X21 = CC(C)S(=O)(=O)*; X57 = N#Cc1ccc(N*)cc1; CO = O=C([*:1])[*:2]
target: HCV NS3/NS4A protease (strain 1a) (Hepatitis C virus genotype 1a, UniProt P27958); test: biochemical; details: Table 5; HCV NS3/NS4A protease, spectrophotometric assay, 30° C., pH 6.5; read-out: Ki* Range
Experimental: Assay for HCV Protease Inhibitory Activity:
Spectrophotometric Assay Spectrophotometric assay for the HCV serine protease was performed on the inventive compounds by following the procedure described by R. Zhang et al, Analytical Biochemistry, 270 (1999) 268-275, the disclosure of which is incorporated herein by reference. The assay based on the proteolysis of chromogenic ester substrates is suitable for the continuous monitoring of HCV NS3 protease activity. The substrates were derived from the P side of the NS5A-NS5B junction sequence (Ac-DTEDWX(Nva), where X=A or chromophoric alcohols (3- or 4-nitrophenol, 7-hydroxy-4-methyl-coumarin, or 4-phenylazophenol). Presented below are the synthesis, characterization and application of these novel spectrophotometric ester substrates to high throughput screening and detailed kinetic evaluation of HCV NS3 protease inhibitors.
Protein concentrations were determined by the Biorad dye method using recombinant HCV protease standards previously quantified by amino acid analysis. Prior to assay initiation, the enzyme storage buffer (50 mM sodium phosphate pH 8.0, 300 mM NaCl, 10% glycerol, 0.05% lauryl maltoside and 10 mM DTT) was exchanged for the assay buffer (25 mM MOPS pH 6.5, 300 mM NaCl, 10% glycerol, 0.05% lauryl maltoside, 5 μM EDTA and 5 μM DTT) utilizing a Biorad Bio-Spin P-6 prepacked column.
Protease Assay: HCV protease assays were performed at 30° C. using a 200 μl reaction mix in a 96-well microtiter plate. Assay buffer conditions (25 mM MOPS pH 6.5, 300 mM NaCl, 10% glycerol, 0.05% lauryl maltoside, 5 μM EDTA and 5 μM DTT) were optimized for the NS3/NS4A heterodimer (D. L. SalI et al, ibid.)). […] Fifty μls of prewarmed protease (12 nM, 30° C.) in assay buffer, was then used to initiate the reaction (final volume 200 μl). The plates were monitored over the length of the assay (60 minutes) for change in absorbance at the appropriate wavelength (340 nm for 3-Np and HMC, 370 nm for PAP, and 400 nm for 4-Np) using a Spectromax Plus microtiter plate reader equipped with a monochrometer (acceptable results can be obtained with plate readers that utilize cutoff filters). Proteolytic cleavage of the ester linkage between the Nva and the chromophore was monitored at the appropriate wavelength against a no enzyme blank as a control for non-enzymatic hydrolysis. The evaluation of substrate kinetic parameters was performed over a 30-fold substrate concentration range (˜6-200 μM). Initial velocities were determined using linear regression and kinetic constants were obtained by fitting the data to the Michaelis-Menten equation using non-linear regression analysis (Mac Curve Fit 1.1, K. Raner). Turnover numbers (kcat) were calculated assuming the enzyme was fully active.
The resulting data were fitted using linear regression and the resulting slope, 1/(Ki*(1+[S] o/Km), was used to calculate the Ki* value.

Ki [µM]	Structure (SMILES)
> 1	CC(C)(C)OC(=O)N[C@H](C(=O)N1C[C@H]2[C@@H]([C@H]1C(=O)NC1(C(=O)C(=O)O)CC1)C2(C)C)C1CCCCC1
0.001 to 0.1	CCCC(NC(=O)[C@@H]1[C@@H]2[C@H](CN1C(=O)[C@@H](NC(=O)NC13CC4CC(CC(C4)C1)C3)C(C)(C)C)C2(C)C)C(=O)C(N)=O (stereo partly shown)
0.001 to 0.1	CC(C)(C)NC(=O)NC(C(=O)N1C[C@@H]2[C@H](C1C(=O)NC(CC1CCC1)C(=O)C(N)=O)C2(C)C)C(C)(C)C (stereo partly shown)
0.101 to 1	CN(C)C(=O)[C@@H](NC(=O)CNC(=O)C(=O)C(CC1CC1)NC(=O)[C@@H]1C2C(CN1C(=O)CC(C)(C)C)C2(C)C)c1ccccc1 (stereo partly shown)
0.101 to 1	C=CCNC(=O)C(=O)C(CCC)NC(=O)[C@@H]1[C@@H]2[C@H](CN1C(=O)[C@@H](NC(=O)OC(C)(C)C)C(C)C)C2(C)C (stereo partly shown)
0.001 to 0.1	CCCC(NC(=O)C1[C@@H]2[C@H](CN1C(=O)[C@@H](NC(=O)OC(C)(C)C)C(C)(C)C)C2(C)C)C(=O)C(=O)NCC(=O)N[C@H](C(=O)N(C)C)c1ccccc1 (stereo partly shown)
0.101 to 1	CCCC(NC(=O)[C@@H]1[C@@H]2[C@H](CN1C(=O)[C@@H](NC(=O)OC1CCC(C)C1)C(C)(C)C)C2(C)C)C(=O)C(N)=O (stereo partly shown)
0.001 to 0.1	CCCC(NC(=O)[C@@H]1[C@@H]2[C@H](CN1C(=O)[C@@H](NC(=O)OC(C)(C)C)C1CCCCC1)C2(C)C)C(=O)C(N)=O (stereo partly shown)
> 1	C=CCNC(=O)C(=O)C(CCC)NC(=O)[C@@H]1C[C@H](c2ccccc2)CN1C(=O)[C@@H](NC(=O)OC(C)(C)C)C(C)(C)C (stereo partly shown)
0.001 to 0.1	CCCC(NC(=O)[C@@H]1[C@H]2[C@@H](CN1C(=O)C(NC(=O)NC(C)(C)C)C1CCCCC1)C2(Cl)Cl)C(=O)C(N)=O (stereo partly shown)
0.101 to 1	CCOC(=O)N[C@H](C(=O)N1C[C@H]2[C@@H]([C@H]1C(=O)NC(CC1CC1)C(=O)C(N)=O)C2(C)C)C1CCCCC1 (stereo partly shown)
> 1	C=CCNC(=O)C(=O)C(CCC)NC(=O)[C@@H]1CC(C)(C)CN1C(=O)[C@H](NC(=O)OC(C)(C)C)C(C)(C)C (stereo partly shown) [drawing 1717]
> 1	CCCC(NC(=O)[C@@H]1C2CCC(C2)N1C(=O)[C@H](NC(=O)OC(C)(C)C)C1CCCCC1)C(=O)C(=O)OC (stereo partly shown)

Structure (SMILES)	Ki [µM]
CCCC(NC(=O)[C@@H]1[C@@H]2[C@H](CN1C(=O)[C@@H](NC(=O)Nc1ccc(C#N)cc1)C(C)(C)C)C2(C)C)C(=O)C(=O)NCC(=O)N[C@H](C(=O)N(C)C)c1ccccc1 (stereo partly drawn) ({X57-CO}-[Tle][Pro(3R,4S-CMe2)][X2]G[Phg]-NMe2)	0.101 to 1
CCCC[C@@H](NC(=O)[C@@H]1[C@@H](OC(C)(C)C)CCN1C(=O)[C@@H](NC(=O)OC(C)(C)C)C(C)(C)C)C(=O)C(=O)NCC(=O)NC(C(=O)N(C)C)c1ccccc1 (stereo partly drawn) (Boc-[Tle][Pro(trans-3-OtBu)][X33]G[ξPhg]-NMe2)	> 1
CCCC(NC(=O)[C@@H]1[C@@H]2[C@H](CN1C(=O)[C@@H](NS(=O)(=O)C(C)C)C(C)(C)C)C2(C)C)C(=O)C(=O)NCC(=O)N[C@H](C(=O)N(C)C)c1ccccc1 (stereo partly drawn) (X21-[Tle][Pro(3R,4S-CMe2)][X2]G[Phg]-NMe2)	0.001 to 0.1

same assay, conditions: Table 6; HCV NS3/NS4A protease, 30° C., pH 6.5; read-out: Ki*

Ki [µM]	Structure (SMILES)
0.101 to 1	C=CCNC(=O)C(=O)C(CC1CCC1)NC(=O)[C@@H]1[C@@H]2[C@H](CN1C(=O)[C@@H](NC(=O)OC(C)(C)C)C(C)(C)C)C2(Cl)Cl (stereo partly shown)
0.001 to 0.1	CCCC(NC(=O)[C@@H]1[C@@H]2[C@H](CN1C(=O)[C@@H](NC(=O)NC(C)(C)C)C1CCCCC1)C2(C)C)C(=O)C(=O)NCCS(=O)(=O)Cc1ccccc1 (stereo partly shown)
0.101 to 1	CCCC(NC(=O)[C@@H]1[C@@H]2[C@H](CN1C(=O)[C@@H](NC(=O)OC(C)(C)C)C1Cc3ccccc3C1)C2(C)C)C(=O)C(=O)NCCC(=O)N1CCOCC1 (stereo partly shown)

Source: patent US7592316B2, “Peptides as NS3-serine protease inhibitors of hepatitis C virus” (Schering Corporation, priority 2000, dated 2009)
